# Article PMC4336329 (PLoS ONE, 2015)
# The campaign covered roughly 310,000 compounds. About 2,200 (0.71%) showed an effect of 50% or more. Effects have a minus sign here. This is one part of the list.
# Biological target: human ether-à-go-go-related gene (hERG) potassium channel (human, UniProt Q12809)
# Assay: primary screen, population patch clamp on CHO cells stably expressing hERG
# Chain of human ether-à-go-go-related gene (hERG) potassium channel (Q12809 whole entry, looked up): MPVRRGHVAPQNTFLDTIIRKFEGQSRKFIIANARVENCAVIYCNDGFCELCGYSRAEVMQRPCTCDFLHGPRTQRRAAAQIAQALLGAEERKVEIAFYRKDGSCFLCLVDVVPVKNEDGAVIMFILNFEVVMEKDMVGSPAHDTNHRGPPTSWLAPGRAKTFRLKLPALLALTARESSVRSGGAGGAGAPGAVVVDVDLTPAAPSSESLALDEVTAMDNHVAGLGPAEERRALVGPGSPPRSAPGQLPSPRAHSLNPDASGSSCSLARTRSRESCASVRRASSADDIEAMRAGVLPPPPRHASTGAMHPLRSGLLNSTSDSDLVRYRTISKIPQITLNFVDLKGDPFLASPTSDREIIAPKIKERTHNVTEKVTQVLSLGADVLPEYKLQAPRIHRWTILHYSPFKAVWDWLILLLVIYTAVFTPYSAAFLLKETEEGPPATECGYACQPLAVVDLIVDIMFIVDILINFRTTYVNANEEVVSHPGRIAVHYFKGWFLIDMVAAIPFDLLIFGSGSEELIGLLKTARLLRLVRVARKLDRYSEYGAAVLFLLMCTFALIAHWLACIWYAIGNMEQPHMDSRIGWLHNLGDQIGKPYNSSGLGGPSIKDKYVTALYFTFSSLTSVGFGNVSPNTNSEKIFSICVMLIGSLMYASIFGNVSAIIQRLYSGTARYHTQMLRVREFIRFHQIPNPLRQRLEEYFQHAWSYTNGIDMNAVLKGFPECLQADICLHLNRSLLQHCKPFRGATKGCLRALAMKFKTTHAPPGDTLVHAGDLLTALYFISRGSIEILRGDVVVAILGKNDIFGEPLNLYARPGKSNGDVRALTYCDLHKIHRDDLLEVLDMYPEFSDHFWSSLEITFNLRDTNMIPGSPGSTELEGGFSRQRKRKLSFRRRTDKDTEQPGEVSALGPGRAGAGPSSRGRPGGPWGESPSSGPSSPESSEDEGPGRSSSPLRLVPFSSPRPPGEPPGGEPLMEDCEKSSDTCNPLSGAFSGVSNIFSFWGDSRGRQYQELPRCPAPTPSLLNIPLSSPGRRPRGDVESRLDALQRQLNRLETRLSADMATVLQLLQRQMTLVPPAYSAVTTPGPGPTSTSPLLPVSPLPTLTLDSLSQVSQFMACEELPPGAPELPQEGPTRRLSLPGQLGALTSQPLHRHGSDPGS
row,SMILES,"hERG current change (%, negative = inhibition) at 1uM"
1,COCCCNC(NC(=O)c1ccc(Br)cc1)C(Cl)(Cl)Cl (stereo not shown),-1.42%
2,CCN1C(=O)CSc2ccc(C(=O)NCc3ccccc3)cc21,14.3%
3,Cc1cc(N2CCOCC2)cc(C)[n+]1[O-],-7.5%
4,CC1=C(C)CC(C(=O)Nc2ccc(C(N)=O)cc2)C(C(=O)O)C1 (stereo not shown),16.6%
5,O=C(Nc1ccccc1OC(F)F)c1ccc(Br)o1,-5.32%
6,CCCOc1ccc(/C=C/C(=O)N2CCN(c3ccccn3)CC2)cc1,9.63%
7,Cc1ccc(OCCCCn2ccnc2)c([N+](=O)[O-])c1,-24.5%
8,COc1ccc(NC(=O)Cn2c(-c3ccccc3)cc(C(C)=O)c2C)c(OC)c1,-2.57%
9,Cc1ccc2oc(C(=O)NCC(c3ccco3)N3CCCC3)c(C)c2c1 (stereo not shown),0.0217%
10,CC1CC(Nc2ccccc2)=NC1(C)C (stereo not shown),18.4%
11,O=C1OC(Nc2ccc(Cl)cn2)c2ccccc21 (stereo not shown),2.2%
12,O=S(=O)(Nc1ccc(O)c(CN2CCCCC2)c1)c1ccccc1,-1.46%
13,Cn1cc(CN2CCC(Oc3ccc(C(=O)N4CCCC4)cc3)CC2)cn1,11.7%
14,O=C(/C=C/c1ccccc1)NCc1cccnc1,14.8%
15,COc1cccc(NC(=S)N2CCC(NC(=O)C3CCCCC3)CC2)c1,13.6%
16,O=c1oc(-c2ccccc2Cl)nc2ccsc12,6.55%
17,COc1cc2nc(N3CCN(C(=O)OCc4ccccc4)[C@H](C(=O)NC(C)(C)C)C3)nc(N)c2cc1OC.O,5.96%
18,CCCCOc1ccc(-c2n[nH]c(=S)n2Cc2ccccc2)cc1,12.8%
19,COc1ccc(N2CCN(C(=O)c3ccc(Br)o3)CC2)cc1,1.91%
20,O=C(Cc1ccc(Cl)cc1)Oc1cccc2cccnc12,10.4%
21,NCCCN1CCOCC1,-6.97%
22,O=C(O)c1ccc(N2C(=O)CC(SC(=Nc3ccccc3)Nc3ccccc3)C2=O)cc1 (stereo not shown),16.7%
23,O=C(CCC1CCCC1)NC1CCCCC1,8.53%

row,SMILES,"hERG current change (%, negative = inhibition) at 1uM"
1,CCOc1ccccc1CN1CCNC(=O)C1CC(=O)NC1CCCCCCC1 (stereo not shown),1.87%
2,CCOc1ccc(OCC(=O)N(CCC2=CCCCC2)c2c(N)n(Cc3ccccc3)c(=O)[nH]c2=O)cc1,13.9%
3,CN(C(=O)NC1CCCCC1)c1ccccc1,10.6%
4,O=C(O)C1C2C=CC(C2)C1C(=O)NCc1ccc2c(c1)OCO2 (stereo not shown),-1.95%
5,CCOc1ccc(C(=O)Nc2cccc(-c3cc4ccccc4oc3=O)c2)cc1[N+](=O)[O-],4.76%
6,Cc1ccccc1C(=O)NCCn1cc(SCC(=O)NCC2CCCO2)c2ccccc21 (stereo not shown),7.28%
7,CCN(CC)C(=S)Nc1cc(C(=O)OC)ccc1C(=O)OC,10.2%
8,COc1cccc(-c2cc(C(=O)N3CCCCC3C)no2)c1 (stereo not shown),13.9%
9,CCOCCCNC(=O)COc1ccc(OC)cc1,12%
10,CCCCN1CC[C@H]2C=CC[C@@H](C(=O)Nc3ccc(OC)cc3)[C@H]2C1=O,-19.8%
11,Cc1ccc(NC(=O)COC(=O)c2cc(C)nc3ccccc23)c([N+](=O)[O-])c1,11.8%
12,CCCOc1ccc(OCCCCNC(C)CC)cc1.O=C(O)C(=O)O (stereo not shown),1.92%
13,Cn1c(=O)cc(OCCCC(=O)NCCCN2CCN(Cc3ccccc3)CC2)c2ccccc21,7.35%
14,Cn1nc(C(=O)NCc2ccc(F)cc2)c2c1-c1ccccc1S(=O)(=O)C2,-4.01%
15,O=C(NCc1ccc(F)cc1)C(=O)NCC1OCCCN1S(=O)(=O)c1cccs1 (stereo not shown),11.4%
16,C=CCn1c(O)c(C=Nc2c(C)n(C)n(-c3ccccc3)c2=O)c(=O)[nH]c1=O,-5.22%
17,CCOC(=O)c1c(C)[nH]c(C(=O)CSc2nnc(CC(C)c3ccccc3)o2)c1C (stereo not shown),10.3%
18,CCN(CC)CCN(C(=O)c1cc2ccccc2cc1OC)c1nc2ccc(F)cc2s1.Cl,11.4%
19,COC(=O)c1c(N)c2ccccc2[nH]c1=O,11.2%
20,COc1ccccc1OCCC(=O)OCCN1C(=O)c2ccccc2C1=O,6.21%
21,Cc1c(C)n(Cc2ccc(F)cc2)c2ccc(C(=O)NCCCN3CCOCC3)cc12,1.06%
22,O=C(O)CCSc1nc2ccccc2n1Cc1ccccc1,13.1%
23,CC(C)(C)C(=O)O/N=C(\N)c1ccc(Br)cc1,11.1%

row,SMILES,"hERG current change (%, negative = inhibition) at 1uM"
1,COC(=O)c1cn(CC(=O)N2CCCCC2C)c2ccccc12 (stereo not shown),0.442%
2,CC(C)NC(=O)Cn1cnc2c(cnn2-c2ccc(F)cc2)c1=O,14.4%
3,COc1ccccc1CNC(=O)C1CCN(Cc2nc(-c3cccc(Cl)c3)oc2C)CC1,-68.3%
4,COc1ccc(/C=C/C(=O)O/N=C(\N)c2cccnc2)cc1OC,-1.96%
5,N#C/C(=N\Nc1ccccc1F)c1nc(-c2ccccc2)cs1,14.8%
6,CCNc1ccc2c(Cl)cc(=O)oc2c1,4.44%
7,Cc1cc(C)n(-c2ncc(-c3ccccc3)nn2)n1,-13.8%
8,O=C(CN1C(=O)CCSc2ccccc21)Nc1cccc(F)c1,-0.243%
9,CC(=O)Nc1ccc(S(=O)(=O)Nc2nc(CN3CCOCC3)nc3sc4c(c23)CCCC4)cc1,13.5%
10,Cc1cc(S(=O)(=O)Nc2cccc(C(=O)O)c2)c(C)c(S(=O)(=O)c2ccc(Cl)cc2)c1,17.5%
11,Cc1ccc(CCN2CC(C(=O)NCCCN3CCOCC3)CC2=O)cc1 (stereo not shown),16.5%
12,O=c1[nH]c(/C=C2\C=Nc3ccccc32)c(O)n1Cc1ccccc1F,16.2%
13,NC(=O)c1ccc(-c2ncc(-c3ccccc3)o2)cc1,7.69%
14,N#C/C(=C\c1ccc(C(=O)O)cc1)S(=O)(=O)c1cc(Br)ccc1Br,11.8%
15,CCCC(=O)c1c(NC)cc(C)oc1=O,5.97%
16,CCN1CCN(CCC(=O)Nc2ccccc2C)CC1,0.723%
17,CSc1ncccc1C(=O)Nc1nc2ccc(Oc3ccccc3)cc2s1,15.1%
18,CCOC(=O)CN1C(=O)NC(C)(c2ccc(OC(F)F)cc2)C1=O (stereo not shown),-6.41%
19,CCc1ccc(NC(=S)NCc2ccccc2)cc1,10.4%
20,CCOc1ccccc1N1CCN(C(=O)c2cccc(-c3ccc(O)cc3)c2)CC1,10.1%
21,O=C(N/N=C1\SCC(=O)N1CCc1ccccc1)c1cccs1,6.06%
22,O=C(NCc1cccs1)c1ccc(Cl)s1,8.76%
23,COc1ccccc1C(=O)NCCC(=O)Nc1cccnc1,9.13%

row,SMILES,"hERG current change (%, negative = inhibition) at 1uM"
1,Cn1cccc1/C=N/NC(=O)c1cccs1,7.85%
2,O=C(O)CC(CC(=O)O)c1ccsc1,9.77%
3,COc1ccc(CCNCc2cccc(C(F)(F)F)c2)cc1OC.O=C(O)C(=O)O,11.1%
4,C=CCn1c(COc2ccc(F)cc2)nnc1SCC(=O)NC1CCS(=O)(=O)C1 (stereo not shown),3.46%
5,Cc1ccc(Cn2c(SCC(=O)NCC3CCCO3)nc3ccsc3c2=O)cc1 (stereo not shown),-3.9%
6,Cc1ccc(NC(=S)N2CCN(C(=O)c3ccccc3)CC2)c(C)c1,13.6%
7,C[C@H](NC(N)=O)C(=O)Nc1ccc2c(c1)OCO2,13.3%
8,CC1(NC(=O)Cc2ccc(S(=O)(=O)N3CCOCC3)s2)CCS(=O)(=O)C1 (stereo not shown),17.2%
9,COc1ccc(N(CC(=O)N2CC=C(c3ccccc3)CC2)S(=O)(=O)c2c(C)noc2C)cc1,13.9%
10,CCOc1ccccc1CNC(=O)C1CCCN(c2nnc(C)c3c(C)n(-c4ccccc4)nc23)C1 (stereo not shown),9.86%
11,CCOc1ncccc1C(=O)Nc1ccc(S(=O)(=O)NC2=NCCCCC2)cc1,8.54%
12,COc1ccccc1NC(=O)CSc1nnc(-c2ccoc2C)n1CCc1ccccc1,-5.45%
13,COc1ccc(-c2cc(=O)c3cc(OC)ccc3o2)cc1,14.4%
14,CCC(=O)Nc1ccc(S(=O)(=O)Nc2ccc(Cl)nn2)cc1.Cl,10.2%
15,N#Cc1ccc(S(=O)(=O)N2CCc3[nH]c4ccc(F)cc4c3C2)cc1,14.2%
16,CC(=O)O[C@H]1C[C@@]2(C)[C@@H](C[C@@H](O)[C@H]3[C@@]4(C)CC[C@@H](O)[C@@H](C)[C@@H]4CC[C@@]32C)/C1=C(\CCC=C(C)C)C(=O)O,11.9%
17,COc1ccccc1/C=C1/C(=O)N(c2ccccc2)N=C1C,-4.22%
18,Cn1c(N)c(C(=O)COC(=O)CCc2ccccc2)c(=O)n(C)c1=O,-1.42%
19,CCOc1ccc(C2=CSC3=NCCN23)cc1[N+](=O)[O-],-61%
20,O=C(Nc1ccc(Oc2ccccc2)cc1)C1CC1,8.93%
21,CCC(C)NC(=O)CNC(=S)N(CCCN1CCOCC1)Cc1cccs1 (stereo not shown),4.34%
22,CCCCn1c(N)c(N(CCC(C)C)C(=O)C(C)N2C(=O)c3ccccc3C2=O)c(=O)[nH]c1=O (stereo not shown),5.4%
